Measurements as given in PubChem BioAssay AID1508642 (National Center for Advancing Translational Sciences (NCATS), 2021).
Hit rate of the full screen: of about 43,000 compounds, about 200 (0.47%) were called active. About 12% were inconclusive and are not listed. Calls follow the shape of the dose curve; as a rule, active = well fitted cell-killing curve with a large enough effect; inconclusive = small, poorly fitted or top-dose-only effect, or effect the other way; inactive = flat fitted curve, though single readings scatter. Some of the results follow.

Assay: Cell viability qHTS assay in S16 Pmp22-F2sN cells; also: nearly all actives have a fitted effect of over 65% in size
Conditions: S16 Pmp22-F2sN Schwann cells (luciferase reporters placed in the Pmp22 gene) viability, CellTiter-Glo, 24 h; series mostly up to 57.5 µM; activity change, negative = cytotoxicity: at the top concentration
In short: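 Seed 500-1,000 S16 Pmp22-F2sN cells per well in phenol-red-free DMEM with 10% heat-inactivated FBS; pin-add 23 nL compound; incubate 24 h at 37C; add CellTiter-Glo, wait 15 min protected from light; read luminescence.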
% is scaled to controls: 0 for no effect and ±100 for the full control effect.

Row | Structure (SMILES) | activity change, negative = cytotoxicity
1 | CSc1ccc(CCNC(=O)c2ccc(-c3nc(COc4ccc(C)cc4)c(C)o3)cc2)cc1 | inactive: 2.74%
2 | COc1ccc(Br)cc1CNC(=O)CCSCc1ccc(C)cc1 | inactive: -5.11%
3 | Cc1ccc(S(=O)(=O)N2CCN(Cc3nc4ccc(C)cc4o3)CC2)cc1 | inactive: -17.8%
4 | O=C(CS(=O)(=O)c1cccc2nsnc12)N1CCN(c2cccc(C(F)(F)F)c2)CC1 | inactive: -9.72%
5 | O=C(Cn1cc(S(=O)(=O)c2ccccc2)c(=O)c2cc3c(cc21)OCO3)Nc1ccc(Cl)cc1 | inactive: 8.05%
6 | CCNc1cc(N2CCN(C3CCCCC3)CC2)c2noc3c2c1C(=O)c1ccccc1-3 | inactive: -4.21%
7 | O=C(O)Cc1sc(Nc2ccccc2)nc1-c1ccccc1 | inactive: -9.43%
8 | COc1ccc(S(=O)(=O)NCCS(=O)(=O)N2CCN(c3ccccc3)CC2)cc1C | inactive: 6.36%
9 | O=C(O)Cc1ccc(NC2(c3ccccc3)C(=O)c3ccccc3C2=O)cc1 | inactive: 4.34%
10 | COC(=O)c1ccccc1NC(=O)C1=C(C)C(=O)OC12CCCCCC2 | inactive: -16.7%
11 | COc1ccc(C(=O)Nc2ccccc2SCc2cc(=O)c3cccc(C)c3[nH]2)cc1 | inactive: 18.3%
12 | CC(Oc1ccc(Br)cc1)C(=O)Nc1ncn[nH]1 (stereo not drawn) | inactive: -2.51%
13 | COc1ccc(N2CCN(Cc3cccn3-c3nnc(N4CCN(C5CCCCC5)CC4)s3)CC2)cc1 | inactive: -3.59%
14 | Cc1nc(SC(C)C(=O)Nc2ccccc2Cl)cc(-c2ccccc2)n1 (stereo not drawn) | inactive: 1.96%
15 | CCn1cc(C(=O)N2CCN(c3cc(C)ccc3C)CC2)c(=O)c2cc(S(=O)(=O)N3CCCCC3)ccc21 | inactive: 3.56%
16 | Cc1ccc([N+](=O)[O-])cc1S(=O)(=O)N1CCn2cccc2C1c1ccccc1 (stereo not drawn) | inactive: -7.74%
17 | COc1ccc(NC(=O)CCc2nnc3n(Cc4ccccc4Cl)c(=O)c4ccccc4n23)cc1 | inactive: 7.71%
18 | Cc1ccc2nc(-c3ccc(Cl)c(NC(=O)COc4ccc(C(C)C)cc4)c3)oc2c1 | inactive: 1.62%
19 | Cc1ccc(C)c(NC(=O)C2CCCN(S(=O)(=O)c3cn(C)cn3)C2)c1 (stereo not drawn) | inactive: -2.84%
20 | Cc1ccc(-c2cc(C(=O)N(Cc3ccc(C(C)(C)C)cc3)Cc3ccco3)no2)cc1 | inactive: 23.6%
21 | COc1ccc(NC(=O)c2ccco2)cc1NC(=O)COc1ccc(Cl)c(C)c1 | inactive: -6.65%
22 | Cc1ccc(NC(=O)N2CC3CCCN3c3ccccc32)c(C)c1 (stereo not drawn) | inactive: -14.4%
23 | Fc1ccc(-n2ncc3c(N4CCCCCC4)ncnc32)cc1 | inactive: 2.11%
24 | CCOc1ccc(C(=O)Nc2c(C(=O)N3CCN(c4ccccc4F)CC3)oc3ccccc23)cc1 | inactive: -7.78%

Row | Structure (SMILES) | activity change, negative = cytotoxicity
25 | Cc1ccc(NS(=O)(=O)c2cc3[nH]c(=O)c(=O)[nH]c3cc2C)cc1Cl | inactive: 15.4%
26 | Cc1cc(N2CCN(c3cccc(C(F)(F)F)c3)CC2)n2nc(-c3ccccc3)nc2n1 | inactive: -3.29%
27 | CC(C)C(=O)NCC1(N(C)C)CCCCC1 | inactive: 1.38%
28 | CCc1nonc1NC(=O)c1oc2ccc(C)cc2c1C | inactive: 4.75%
29 | CCOc1ccc(N2C(=O)c3n[nH]c(-c4cccs4)c3C2c2cccc(F)c2)cc1 (stereo not drawn) | inactive: 0.518%
30 | CCOC(=O)c1ccc(-n2c(-c3ccc(C)cc3)c(C)n3c4c(=O)n(C)c(=O)n(C)c4nc23)cc1 | inactive: 2.27%
31 | COc1ccc(-c2cc(-c3ccc4c(c3)NC(=O)CO4)nc3c2COc2ccc(F)cc2-3)cc1 | inactive: 2.94%
32 | CCN(CC)S(=O)(=O)c1ccc2c(c1)N(CC(=O)N1CCN(c3cccc(OC)c3)CC1)C(=O)CO2 | inactive: -3.2%
33 | CCOc1ccccc1CNC(=O)c1ccc2c(c1)nc1n2CCCCC1 | inactive: 2.12%
34 | Cc1c(Nc2nc3ccccc3n3c(C)nnc23)cccc1C(=O)O | inactive: -1.19%
35 | CCc1ccc(NC(=O)c2ccc(F)c(S(=O)(=O)NCc3ccc(Cl)c(Cl)c3)c2)cc1 | inactive: 10.5%
36 | CN(C)c1ccc(-c2nc(-c3ccco3)no2)cc1[N+](=O)[O-] | inactive: -9.25%
37 | O=C(Nc1ccccc1)N(Cc1cccs1)c1ccc(F)cc1 | inactive: 2.06%
38 | CCCN(C(=O)c1cc2c(=O)oc3ccccc3c2s1)c1cccc(Cl)c1 | inactive: 13.6%
39 | CCCc1cc(=O)n2[nH]c(NC(=O)c3ccccc3Cl)nc2n1 | inactive: 1.31%
40 | CCOC(=O)N1CCN(C(=O)CN(c2cccc(Cl)c2)S(=O)(=O)c2ccccc2)CC1 | inactive: -0.709%
41 | Cc1ccc(NC(=O)N2CCc3cc(S(=O)(=O)N4CCC(C)CC4)ccc32)cc1F | inactive: 5.69%
42 | CCOC(=O)c1ccc(N2C(=O)c3[nH]nc(-c4ccc(OC)cc4)c3C2c2ccccc2Cl)cc1 (stereo not drawn) | inactive: 20.9%
43 | COc1ccc(C2c3c(n(C)c4ccccc34)C(=O)N2CC(=O)Nc2cc(Cl)ccc2C)cc1 (stereo not drawn) | inactive: -18.5%
44 | Cc1ccc2onc(CC(=O)Nc3cccc(C(F)(F)F)c3)c2c1 | inactive: -25.3%
45 | CCc1cccc(NS(=O)(=O)c2ccc3c(c2)n(C)c(=O)c(=O)n3C)c1 | inactive: -4.23%
46 | CCOC(=O)c1c(NC(=O)CSc2cn(CCNC(=O)c3ccc(OC)c(OC)c3)c3ccccc23)sc2c1CCCC2 | inactive: 3.48%
47 | Cc1ccc(CNC(=O)CCCn2nc(C)c3c(C)n(-c4ccccc4)nc3c2=O)cc1 | inactive: -0.64%
48 | CCOC(=O)CSc1nc2cc3c(cc2c(=O)n1CCCC(=O)NCCc1ccc(OC)c(OC)c1)OCO3 | inactive: -14.9%
